Among the data in the RNAGym collection of RNA variant scans (doi:10.7554/elife.90254) are self-cleavage values, retold here.

Sequences and labels used below:
B1: LINE1-mini (parent)
chain: GGCAGAGCUCAACACAGCGUGGCAAAGUGGCUGUGGCUAGACUGCC

The source gives no read counts; variants with many changes may rest on few reads.

The variants in the data set derive from B1. Description: self-cleavage, relative activity (ratio to wild type); higher = more cleavage; in vitro, sequencing; the parent is a self-cleaving ribozyme.
Regarding G1A G21A G29A C42U, the self-cleavage was found to be 0.5.
The value for G1A G21U U38A C46U was 0.6.
The value for G1A G5U C46G was 0.14.
The value for G1A G2C G29A U34A was 0.22; that for G1A A12C A14G C15A was 0.05.
Take G1A C10A A39C: the self-cleavage was found to be 0.
The value for G1A A12U A39U G44A was 0.08; that for G1A A14C G27C was 0.15.
G1A A24U G44C: the self-cleavage was found to be 0.8.
For G1A G30U C46A the value was 1.64; for G1A C8G G29U, 0.21; for G1A G22A A39G C45A, 0.15.
Take G1A A26C U34G: the self-cleavage is 0.73.
Consider G1A C23A G33A C42U U43C C46A, for which the self-cleavage turned out to be 0.03.
The value for G1A C23A C31G G40C was 0.02; that for G1A C13G G35U was 2.1; that for G1A G5A C15U A16G G36U C46G was 0.09.
The value for G1A C18U U20G U38G was 0.01; that for G1A G7A G27A was 0.56.
Turning to G1A A6C A14G, the self-cleavage turned out to be 0.13.
For G1A C13A G17A C31A the value was 0.04.
For G1A A4U A16G C37A C45G the value was 0.07; for G1A G2U G27C U32G U38C C42A, 0.05; for G1A A4G A12U G33A A41C, 0.03.
The value for G1A C10A C13A G27C was 0.05; that for G1A G7A C15A G27U A39U C46A was 0.57; that for G1A A11U C18G was 0.05.
As for G1A G27A A39U, the self-cleavage amounted to 1.74.
On to G1A G2U G7C A16G, for which the self-cleavage came out at 0.05.
The value for G1A C13G U20C G22A C31A G33U U43C was 0.02; that for G1A C10G G22U C37U was 0.04.
The value for G1A C15U G30A U38G was 0.06; that for G1A U9C G44U was 0.03.
The value for G1A A14G G36U C42A was 0.1.
As to G1A G5U A14G G40U, the self-cleavage amounted to 0.02.
As for G1A A6G C10U A11C C31A A39G, the self-cleavage came to 0.01.
The value for G1A U9G G21C G27U G40U was 0.13.
The value for G1A C10A U34G was 0.07; that for G1A G35U G36C was 0.12.
For G1A U9A C42A the value was 0.45; for G1A C13U G19A, 0.13.
As for G1A C8U G29U, the self-cleavage was found to be 0.3.
G1A C15G G21U: the self-cleavage was 0.04.
For G1A U9G A11G G22A the value was 0.09.
For G1A U9G U34C the value was 0.02; for G1A C15U A16U G36U, 0.11; for G1A A6C C10A A16G, 0.05.
The value for G1A G2U G22C A39G G40C was 0.03.
For the variant G1A C10A G36A, the self-cleavage came to 0.01.
For G1A U9A G36U U43A the value was 0.04; for G1A A16U G36U, 0.17; for G1A G17A G35U, 0.12.
The value for G1A A4C C8G C10A C23U C46A was 0.03.
For G1A C15G G19C G21U C46U the value was 0.14; for G1A A16G G17C G27C U38A C45U, 0.08.
Consider G1A C3U C10A, for which the self-cleavage was determined as 0.1.
For G1A C8A C23A the value was 0.37; for G1A C18G A26C G27A C37G, 0.03.
The value for G1A A16U G29C G30A was 0.33.
The value for G1A C18G A41C was 0.02.
With G1A G7A U20G G29U C42A, the self-cleavage turned out to be 0.12.
Turning to G1A C10G U32C, the self-cleavage was 0.08.
For G1A G2U C8G the value was 0.03; for G1A A14U C23U, 0.12; for G1A A39U C46A, 2.3.
For G1A A4U C31U G40C the value was 0.06.
Consider G1A G2C G29A G36A, for which the self-cleavage came out at 0.38.
The value for G1A A12G U43A G44C was 0.07; that for G1A A24C C31A was 0.07; that for G1A G21A U43A G44A was 0.1.
The value for G1A G2C A11C C46A was 0.01.
For G1A G5A C18A G21C G27U the value was 0.11.
On to G1A C13U A26C U38C, for which the self-cleavage turned out to be 0.11.
For G1A G19A U34A G35A U38C the value was 0.03; for G1A C3U U9A A24G U32A G35C, 0.29; for G1A A24C A25G U34G G35C G44C, 0.08.
The value for G1A G5A A26C G29U was 0.13; that for G1A C8A G17C G22A was 0.77.
For G1A C3U G29U G36C A41C C46U the value was 0.12; for G1A C10U A16G, 0.16.
Regarding G1A C8A C15G G33C C46G, the self-cleavage is 0.38.
For G1A G7C G44A the value was 0.52; for G1A G2C C15A G33U, 0.04; for G1A G5U A26C G27A, 0.02.
The value for G1A C23A A26U G27C C31A G33A U38A C42U was 0.03; that for G1A C8U C15U A24C was 0.05.
For G1A C13G G19A the value was 0.44; for G1A G21C G33U, 0.13; for G1A G2U G5A C10A G22C A24C, 0.02.
Consider G1A G17U G21U G33C, for which the self-cleavage was found to be 0.04.
For G1A G19U C31A C37U, the self-cleavage is 0.09.
For G1A G17C C37A the value was 0.06; for G1A C15U C18A G30U C37U, 0.04; for G1A C13U C31G G36C A39C, 0.04.
For G1A C15U G21A C31G the value was 0.04; for G1A U9G G44A, 0.14; for G1A C10G A41G, 0.04.
Consider G1A G2U A4C A12C C13A A41U, for which the self-cleavage turned out to be 0.04.
Turning to G1A G21A A25G U32G, the self-cleavage stood at 0.11.
The value for G1A G2C G5A G30C C46A was 0.35; that for G1A A41C U43C was 0.13.
For G1A G22C C31G the value was 0.04.
The value for G1A G27C C42U was 0.05.
For the variant G1A U9G A24G U38A, the self-cleavage was found to be 0.51.
For G1A A26U A39C, the self-cleavage is 0.11.
The value for G1A C45G C46A was 0.17; that for G1A A11C C42A C46A was 0.01; that for G1A C18U A24G G33U was 0.01.
For G1A G7A A39U the value was 0.93; for G1A A14G G40A U43G, 0.11; for G1A A6C G27C G30A U38A, 0.06.
For G1A A4G U9G C15A the value was 0.17; for G1A A4C C18A G35C, 0.05; for G1A C10A C23U, 0.13.
In the case of G1A C8G A24G, the self-cleavage is 0.1.
With G1A G17U G33A G36U C45U, the self-cleavage is 0.04.
For G1A C13G C31G the value was 0.04.
On to G1A C3U C10U C15G G19U C45G, for which the self-cleavage is 0.06.
The value for G1A G5A C15U was 0.1; that for G1A A12U G22A U28A C31A C37U U43C was 0.03.
For G1A G2U A12C U20A U28A the value was 0.02; for G1A G2U U32A, 0.01; for G1A C15G G44U, 0.08.
As to G1A C3U G5C A6G C45G, the self-cleavage turned out to be 0.09.
The value for G1A G17U G29U U38A was 0.04.
The value for G1A G5C G35U G36A G44A was 0.05.
For G1A G2U C3A U38G A39G the value was 1.64; for G1A A4U G19C G22C A24G G30C C42U, 0.11.
Take G1A G5C U9C G27C U43C: the self-cleavage came out at 0.03.
For G1A G21A G29U the value was 1.08; for G1A G7C U9C G36U A41U, 0.09.
The value for G1A A6G G19C was 0; that for G1A C8A C10U A24U A41C was 0.14.
For G1A G17A G19C G21C the value was 1.4; for G1A A11C C42U G44U, 0.03; for G1A G19C G22U G27A C46U, 0.89.
As for G1A A6G C8G A14U U28C G30A U38C, the self-cleavage turned out to be 0.03.
For G1A G5A A14U U38A the value was 0.11.
Regarding G1A C8U A12G, the self-cleavage stood at 0.07.
The value for G1A G27C G30U C31G was 0.05.
The value for G1A A12U C23A was 0.29; that for G1A C3A A6U A14U was 0.57; that for G1A A41U C45A was 0.11.
For G1A A14U G21C the value was 0.2; for G1A C3A G33C, 0.15.
Consider G1A C10U A11G, for which the self-cleavage was 0.03.
For G1A G7A G17A A39C the value was 0.3; for G1A U9C A41C, 0.22; for G1A C10G A12C G19C C45A, 0.01.
The value for G1A A4U C42A was 0.12; that for G1A G2A C15U G30C U34G G35A G44C was 0.17.
With G1A A14U G33A, the self-cleavage stood at 0.11.
In the case of G1A G2C U9C U38C U43A, the self-cleavage is 0.01.
The value for G1A A6U C8U C23U was 0.41; that for G1A U9A A16U G19A C31U was 0.03.
For G1A G30C C42U G44C C46G the value was 0.02.
The value for G1A C8A C13A G30U was 0.92; that for G1A G19A U34G was 0.33; that for G1A C15U G44A was 0.06.
Consider G1A G17C A25U, for which the self-cleavage was determined as 0.96.
For G1A U9A A41C the value was 0.12; for G1A A26U G40A C42U, 0.02.
For G1A A14G C15G G19C the value was 0.02.
The value for G1A C13G G33A was 0.09.
For the variant G1A G7A G29A, the self-cleavage was 0.46.
For G1A A4G C13A G19U G44U the value was 0.04; for G1A C10A A14C G30A, 0.
